Test results: the supplement of paper PMC11876631
Where a chain is given by its changes, count along the chain named. In names and notes the source's numbering stands. ± gives the standard deviation of the averaged measurements. Laboratory Escherichia coli strains with one amino-acid change in an essential protein, pooled on minimal glucose agar with carbenicillin or gentamicin at twice the control MIC (plus kanamycin and chloramphenicol for the plasmids), 48 h. Fold change of barcode share against drug-free plates; higher = less susceptible. Active = above 20 in both replicates (the paper's putatively resistant). '<' = one read or none on drug, '>' = one read or none on a drug-free plate. Shares are relative, so most strains fall below 1 when a few take over. Listed are strains with at least 15 reads on both drug-free plates, and hits; most hits rest on fewer reference reads. Replicate rank correlation about 0.5. Edits are read from barcodes.

B1: aroD L78Q (protein)
chain: MKTVTVKDLVIGTGAPKIIVSLMAKDIASVKSEALAYREADFDILEWRVDHYADLSNVESVMAAAKILRETMPEKPLQFTFRSAKEGGEQAISTEAYIALNRAAIDSGLVDMIDLELFTGDDQVKETVAYAHAHDVKVVMSNHDFHKTPEAEEIIARLRKMQSFDADIPKIALMPQSTSDVLTLLAATLEMQEQYADRPIITMSMAKTGVISRLAGEVFGSAATFGAVKKASAPGQISVNDLRTVLTILHQA
B2: metB V211Q (protein)
chain: MTRKQATIAVRSGLNDDEQYGCVVPPIHLSSTYNFTGFNEPRAHDYSRRGNPTRDVVQRALAELEGGAGAVLTNTGMSAIHLVTTVFLKPGDLLVAPHDCYGGSYRLFDSLAKRGCYRVLFVDQGDEQALRAALAEKPKLVLVESPSNPLLRVVDIAKICHLAREVGAVSVVDNTFLSPALQNPLALGADLVLHSCTKYLNGHSDVVAGVQIAKDPDVVTELAWWANNIGVTGGAFDSYLLLRGLRTLVPRMELAQRNAQAIVKYLQTQPLVKKLYHPSLPENQGHEIAARQQKGFGAMLSFELDGDEQTLRRFLGGLSLFTLAESLGGVESLISHAATMTHAGMAPEARAAAGISETLLRISTGIEDGEDLIADLENGFRAANKG
B3: metB V211D (protein)
chain: B2 chain with Q211D
B4: metB I80Q (protein)
chain: B2 chain with I80Q, Q211V
B5: metB V211P (protein)
chain: B2 chain with Q211P
B6: metB I80W (protein)
chain: B2 chain with I80W, Q211V
B7: metB I80A (protein)
chain: B2 chain with I80A, Q211V

Biological target: Escherichia coli (laboratory strain)
Assay: barcode share on antibiotic plates over drug-free plates; higher = less susceptible
Protocol: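 A pool of E. coli strains, each edited to carry one amino-acid change in an essential protein, was grown for 48 h on minimal glucose agar with or without antibiotic; strain barcodes were sequenced; mean of two replicates.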

[1] = antibiotic: carbenicillin, 2× MIC (3.1 µg/mL)
[2] = antibiotic: gentamicin, 2× MIC (MIC 0.45 µg/mL)

Protein | fold change of barcode share [1] | fold change of barcode share [2]
B1 | 0.41 ± 0.14 | < 0.0117
B2 | 0.50986 ± 6.4e-05 | 0.0111 ± 0.0033
B3 | 0.896 ± 0.079 | 0.0387 ± 0.038
B4 | 0.487 ± 0.12 | 0.0106 ± 0.0034
B5 | 1.43 ± 0.85 | 0.0473 ± 0.016
B6 | 0.639 ± 0.092 | 0.0185 ± 0.0055
B7 | 0.646 ± 0.26 | 0.0098 ± 0.005
